Experimental data: PubChem BioAssay AID504332 (National Center for Advancing Translational Sciences (NCATS), 2011)
Hit rate of the full screen: of about 350,000 compounds, about 31,000 (8.9%) were called active. Inconclusive results, whose numbers are uncertain, are shown with a selection of clear calls. Calls follow the shape of the dose curve; as a rule, active = well fitted inhibition curve with a large enough effect; inconclusive = small, poorly fitted or top-dose-only effect; inactive = no such curve, though single readings can be large or run the other way. A potency beside an inconclusive call is a rough fit, not a confirmed value.

The compounds below were run against Histone-lysine N-methyltransferase EHMT2 (Homo sapiens) (UniProt Q96KQ7) (assay: qHTS Assay for Inhibitors of Histone Lysine Methyltransferase G9a). Details: G9a H3K9 monomethylation, AlphaScreen, 2 h; activity, negative = inhibition: at 59 µM (top of the series) unless noted.
Sequence of UniProt Q96KQ7 (Q96KQ7 whole entry, looked up): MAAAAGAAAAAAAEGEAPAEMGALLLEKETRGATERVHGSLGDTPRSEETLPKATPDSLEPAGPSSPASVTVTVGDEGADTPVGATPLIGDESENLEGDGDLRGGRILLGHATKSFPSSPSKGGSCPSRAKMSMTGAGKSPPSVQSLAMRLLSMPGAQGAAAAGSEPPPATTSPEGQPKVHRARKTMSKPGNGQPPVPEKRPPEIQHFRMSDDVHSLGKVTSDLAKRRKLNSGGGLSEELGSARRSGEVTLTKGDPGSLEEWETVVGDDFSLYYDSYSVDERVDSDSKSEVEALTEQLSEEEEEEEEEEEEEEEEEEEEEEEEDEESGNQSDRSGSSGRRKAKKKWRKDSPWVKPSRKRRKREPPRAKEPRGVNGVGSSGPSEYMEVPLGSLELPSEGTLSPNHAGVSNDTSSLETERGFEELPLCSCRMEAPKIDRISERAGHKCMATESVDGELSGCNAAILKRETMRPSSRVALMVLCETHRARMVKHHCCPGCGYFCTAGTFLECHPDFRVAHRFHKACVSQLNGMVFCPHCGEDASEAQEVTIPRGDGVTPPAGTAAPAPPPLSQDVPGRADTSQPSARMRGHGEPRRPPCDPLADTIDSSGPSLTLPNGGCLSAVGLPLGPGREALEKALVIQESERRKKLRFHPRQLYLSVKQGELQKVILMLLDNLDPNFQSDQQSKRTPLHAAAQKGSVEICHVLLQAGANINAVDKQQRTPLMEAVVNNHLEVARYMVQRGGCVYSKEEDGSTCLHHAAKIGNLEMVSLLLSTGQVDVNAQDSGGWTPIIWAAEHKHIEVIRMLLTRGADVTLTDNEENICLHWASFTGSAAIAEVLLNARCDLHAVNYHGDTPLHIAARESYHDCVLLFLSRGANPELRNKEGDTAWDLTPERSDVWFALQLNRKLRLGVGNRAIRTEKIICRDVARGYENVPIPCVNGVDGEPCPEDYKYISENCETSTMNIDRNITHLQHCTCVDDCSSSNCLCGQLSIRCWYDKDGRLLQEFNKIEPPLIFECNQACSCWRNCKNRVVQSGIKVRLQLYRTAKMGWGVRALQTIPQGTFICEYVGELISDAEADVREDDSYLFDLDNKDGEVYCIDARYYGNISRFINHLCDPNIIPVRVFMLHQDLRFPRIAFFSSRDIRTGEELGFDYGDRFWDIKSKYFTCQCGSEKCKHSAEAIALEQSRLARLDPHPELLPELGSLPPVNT
Procedure, shortened: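 Quantitative HTS format: methyltransferase activity on a biotin-tagged H3K9 peptide is measured by AlphaScreen, using a rabbit anti-monomethyl-H3K9 antibody with streptavidin donor and anti-IgG acceptor beads. Final levels are 20 nM enzyme, 500 nM peptide, 20 uM SAM; 2 h RT.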
% is scaled to controls: 0 for no effect and ±100 for the full control effect; potency is read from the fitted curve at half-maximal effect; tags tell the direction and shape of the fitted curve.
Also: nearly all actives have a fitted effect of over 75% in size.

| Compound | Potency | activity, negative = inhibition |
| --- | --- | --- |
| CCOc1ccc(C(=O)NCC(c2ccco2)S(=O)(=O)c2ccc(C)cc2)cc1 (stereo not given) | inconclusive: 7.94 µM [inhibitor, partial curve, poor fit] |  |
| CSc1ccc(CN(C)C(=O)c2ccc(S(=O)(=O)Nc3ccccc3)cc2)cc1 | inconclusive: 89.1 µM [inhibitor, partial curve, poor fit] |  |
| O=C1CN(C(=O)c2cc(Br)c(Br)s2)c2ccccc2N1 | inconclusive: 31.6 µM [inhibitor, single point] |  |
| O=c1[nH]c2ccccc2c2ccccc12 | inactive |  |
| CC(C)CN(C(=O)c1ccc(-n2cncn2)c([N+](=O)[O-])c1)C1CCS(=O)(=O)C1 (stereo not given) | inconclusive: 50.1 µM [inhibitor, partial curve, poor fit] |  |
| CN(C)CCN(C(=O)/C=C/c1cccs1)c1nc2c(F)cc(F)cc2s1 | inconclusive: 8.91 µM [inhibitor, partial curve, poor fit] |  |
| CC1CC(C(F)(F)C(F)(F)F)n2nc(C(=O)O)cc2N1 (stereo not given) |  | inactive: 2.83% |
| Cn1c(=O)c2nc(SCC(=O)Nc3cc(Cl)ccc3Cl)n(C)c2n(C)c1=O |  | inactive: 6.92% |
| c1ccc(CNc2nc3ccccc3c3nc(-c4ccccc4)nn23)cc1 |  | inactive: 7.52% |
| COc1ccc(-c2nc3c(n2O)CCC/C3=N\O)cc1 |  | inconclusive: -74.3% [inhibitor] |
| COc1ccc(NS(=O)(=O)c2cc3[nH]c(=O)c(=O)[nH]c3cc2C)cc1OC |  | inactive: -25.6% |
| C=CCn1c(SCC(=O)c2cc(C)n(Cc3cccs3)c2C)nnc1-c1ccncc1 |  | inconclusive: -51.5% [inhibitor] |
| Cc1cccnc1CCNC(=O)CC1C(=O)NCCN1CC1CCCCC1 (stereo not given) | active: 39.8 µM |  |
| CCCCn1c(N)c(N(CC)C(=O)C2COc3ccccc3O2)c(=O)[nH]c1=O (stereo not given) |  | inactive: -34.8% [at 102 µM] |
| Cc1cc(C(=O)NNC(=O)c2ccc(Cl)cc2)no1 | inconclusive: 39.8 µM [inhibitor, single point] |  |
| O=C(COC(=O)CCCOc1ccccc1)NNC(=O)c1ccc([N+](=O)[O-])cc1 | inconclusive: 15.8 µM [inhibitor, partial curve, poor fit] |  |
| COc1ccc(/C=N/N2CCN(c3ccccc3)CC2)cc1Br |  | inactive: -6.6% [at 102 µM] |
| O=C(Oc1ccc([N+](=O)[O-])cc1)c1cccnc1 | inconclusive: 0.562 µM [inhibitor, full curve, poor fit] |  |
| CCCS(=O)(=O)Nc1c(OC)ccc2c1c(C(=O)OCC)c(C)n2C | inconclusive: 79.4 µM [inhibitor, single point] |  |
| CCc1ccc(-n2nc3cc(C)c(NC(=O)c4cc(Cl)ccc4OC)cc3n2)cc1 | active: 14.1 µM |  |
